# Experimental data reported in publication PMC4336329 (PLoS ONE, 2015).
# In all, about 310,000 compounds went through this assay and about 2,200 (0.71%) showed an effect of 50% or more. The effect is printed as a negative number. The list shows a part of the results.
# Molecular target: human ether-à-go-go-related gene (hERG) potassium channel (human, UniProt Q12809)
# Experiment: primary screen, population patch clamp on CHO cells stably expressing hERG
# Chain of human ether-à-go-go-related gene (hERG) potassium channel (Q12809 whole entry, looked up): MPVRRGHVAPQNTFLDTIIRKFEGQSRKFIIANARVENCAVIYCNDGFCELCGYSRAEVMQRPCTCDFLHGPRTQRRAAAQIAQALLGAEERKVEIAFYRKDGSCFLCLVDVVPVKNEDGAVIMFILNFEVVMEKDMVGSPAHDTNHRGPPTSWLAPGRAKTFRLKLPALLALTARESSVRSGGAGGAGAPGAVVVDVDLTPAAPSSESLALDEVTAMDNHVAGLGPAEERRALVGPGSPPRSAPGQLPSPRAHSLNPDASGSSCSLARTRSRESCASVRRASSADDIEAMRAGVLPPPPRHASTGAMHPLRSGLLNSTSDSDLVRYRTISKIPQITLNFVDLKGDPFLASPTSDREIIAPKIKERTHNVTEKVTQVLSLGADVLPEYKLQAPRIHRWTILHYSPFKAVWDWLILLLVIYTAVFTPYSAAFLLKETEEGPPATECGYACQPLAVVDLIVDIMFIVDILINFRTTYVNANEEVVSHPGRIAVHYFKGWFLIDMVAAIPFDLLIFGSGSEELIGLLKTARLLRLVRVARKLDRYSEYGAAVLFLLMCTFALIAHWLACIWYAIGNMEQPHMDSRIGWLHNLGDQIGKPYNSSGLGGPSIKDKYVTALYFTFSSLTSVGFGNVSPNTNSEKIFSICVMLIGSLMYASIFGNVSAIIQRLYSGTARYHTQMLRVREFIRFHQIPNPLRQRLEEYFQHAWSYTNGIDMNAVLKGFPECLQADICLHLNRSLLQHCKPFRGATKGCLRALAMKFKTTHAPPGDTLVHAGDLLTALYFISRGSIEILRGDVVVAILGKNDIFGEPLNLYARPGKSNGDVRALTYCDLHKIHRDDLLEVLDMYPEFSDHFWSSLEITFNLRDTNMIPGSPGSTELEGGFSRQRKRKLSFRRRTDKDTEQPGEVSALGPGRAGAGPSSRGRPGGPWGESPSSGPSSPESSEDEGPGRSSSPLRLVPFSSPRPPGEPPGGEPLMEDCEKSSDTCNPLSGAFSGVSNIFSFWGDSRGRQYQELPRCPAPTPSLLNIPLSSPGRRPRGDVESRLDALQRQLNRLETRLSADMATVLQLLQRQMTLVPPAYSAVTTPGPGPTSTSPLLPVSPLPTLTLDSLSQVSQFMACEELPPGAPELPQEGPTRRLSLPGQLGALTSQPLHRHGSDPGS
row,Structure (SMILES),"hERG current change (%, negative = inhibition) at 1uM [%]"
1,COc1cccc(OC)c1C(=O)Nc1ccc(N2CCN(C(=O)c3ccco3)CC2)cc1,12.3
2,Oc1ccc(NC(=S)Nc2ccc(O)cc2)cc1,10.9
3,Cc1cccc(CSc2nc3c(c(=O)n2C)SCC3)c1,1.94
4,Cc1ccc2c(Cl)c(C(=O)NCCCn3ccnc3)sc2c1,-1.11
5,Cc1ccccc1CN1CCN(CC(=O)NCCCN2CCN(c3ccc(F)cc3)CC2)C1=O,-52
6,COc1ccc(OCCN(C)Cc2ccccc2)cc1,-10.7
7,COC(=O)c1ccc(C2/C(=C(/O)c3ccc4c(c3)CC(C)O4)C(=O)C(=O)N2Cc2ccncc2)cc1 (centres unmarked),12.7
8,COc1ccc(OC)c(/C=C2\Oc3cc(OCC(=O)N4CCC(C(=O)O)CC4)ccc3C2=O)c1,-5.15
9,Cc1ccc(OCc2n[nH]c(=S)n2-c2ccccc2)cc1C,13.5
10,O=C1C2CCCN2C(=O)N1CCCCN1CCN(c2cccc(Cl)c2)CC1 (centres unmarked),-49.5
11,O=C(Nc1ccccc1C(=O)N1CCOCC1)c1ccc(Br)cc1,-5.8
12,O=C(CC1C(=O)NCCN1Cc1c(F)cccc1Cl)NCCCN1CCCC1=O (centres unmarked),14
13,O=C(Nc1ncn[nH]1)c1ccc(Cl)cc1Cl,-10.1
14,O=C(N/N=C/c1ccc([N+](=O)[O-])o1)C(=O)Nc1ccc(C(=O)O)cc1,8.53
15,CONc1nc2nonc2nc1NOC,8.72
16,CC1(C)N=C(c2ccccn2)C(C)(C)N1O,20.4
17,Cc1ccc(C2=NN(C(=O)c3ccco3)C(O)(C(F)(F)F)C2)cc1 (centres unmarked),8.98
18,Cc1nnc(SCC(=O)Nc2ccccc2F)n1Cc1ccco1,9.78
19,Cc1ccc[n+](CC(=O)Nc2ccc([N+](=O)[O-])cc2Cl)c1.[Cl-],5.67
20,COc1ccccc1C(=O)Nc1ccc(S(=O)(=O)N2CCOCC2)cc1,1.5
21,CC(=O)Nc1ccc(S(=O)(=O)Oc2ccc(C=O)cc2)cc1,17
22,CC(C)P(=O)(c1cccc(C(=O)O)c1)C(C)C,12.4
23,CC(C)CCN1C(=O)c2ccc(C(=O)OCn3nnc4ccccc4c3=O)cc2C1=O,6.99

row,Structure (SMILES),"hERG current change (%, negative = inhibition) at 1uM [%]"
1,O=C(Nc1cccc(F)c1)C1CCCN1C(=O)OCc1ccccc1 (centres unmarked),7.77
2,CCn1cnc2cc(NCc3nc4ccccc4n3Cc3ccccc3)ccc21,-15.2
3,Cl.O=C(O)C1CCCN(CCC=C(c2ccccc2)c2ccccc2)C1 (centres unmarked),-20.5
4,Cc1nn(-c2ccccc2)c2c1C(c1ccc(O)c(O)c1)N1C(=N2)C(Nc2ccccc2)=Nc2ccccc21 (centres unmarked),14.8
5,C=CCNc1nnc(SC2CC(=O)N(c3ccc(OC)cc3)C2=O)s1 (centres unmarked),4.89
6,Cc1cc(/C=C2\C(=N)N3N=C(c4ccco4)SC3=NC2=O)c(C)n1Cc1ccccc1,12.5
7,Fc1ccccc1CSc1ccc(-c2ccco2)nn1,7.24
8,CCc1ccc(NC(=O)CSc2nc3n[nH]c(C)c3c(=N)n2-c2cccc(OC)c2)cc1,4.34
9,Cc1cccc(/C=N/Nc2nncc3ccccc23)c1,0.283
10,Cc1nc(SCC(=O)N2CC(=O)Nc3ccccc32)nc(C)c1C,14.2
11,CC1CC2(CCCC2)N(C(=O)c2ccccc2)Cc2ccccc21 (centres unmarked),5.27
12,CC(C)Cc1csc(NC(=O)C(C)C)c1C(=O)O,8.19
13,CCCCn1c(-c2ccc(OC)cc2)nc2c(=O)n(C)c(=O)[nH]c21,12.7
14,COc1ccc(C(NC(=O)/C=C\c2ccco2)c2ccc(OC)c(OC)c2)cc1 (centres unmarked),-1.92
15,N#CCc1ccc(NC(=O)c2ccc(CN3CCc4ccccc4C3)cc2)cc1,12.3
16,COc1ccccc1CNS(=O)(=O)c1ccc(-c2cnc(C3CC3)o2)cc1,6.55
17,Cc1cccc(OC(=O)c2cn(C)nc2C(F)(F)F)c1C,6.19
18,Cc1cccc(C)c1N(CC(=O)NN=C1CCCCCC1)S(C)(=O)=O,5.32
19,C/C(CC(=O)Nc1ccc(N(C)C)cc1)=N\NC(=O)c1ccc(C(C)(C)C)cc1,15.5
20,COc1ccc(S(=O)(=O)N2CCOCC2)cc1Br,10.7
21,Cc1ccc(C2CC(=O)N(c3ccc(F)cc3)C3=C2C(=O)CCC3)cc1 (centres unmarked),12.2
22,Br.CCCc1nnc2n1N=C(c1ccc(C)cc1)CS2,3.77
23,CC(=O)N1CCC2(CC1)CC(=O)c1cc(OCC(=O)N3CCCC3)ccc1O2,13.7

row,Structure (SMILES),"hERG current change (%, negative = inhibition) at 1uM [%]"
1,COc1ccc2nc(NC(=O)CSc3nnc(C)s3)sc2c1,15.3
2,Cc1noc(/C=C/N(C)C)c1S(=O)(=O)N1CCc2ccccc21,-2.65
3,COc1ccc(CCN(C)C(=O)CN2C(=O)NC3(CCCCCC3)C2=O)cc1OC,10.8
4,O=C(c1ncn[nH]1)N1CCN(c2nc(-c3ccccc3)cs2)CC1,2.46
5,Cc1ccc(NC(=O)c2cc(-n3cnnc3)ccc2Cl)c(C)c1,-16.2
6,CC(C)(C)C(=O)OCc1nc(-c2ccc(C(F)(F)F)cc2)cs1,20.2
7,O=C(NCc1ccccn1)c1cc2ccccn2n1,12
8,Cc1cc2occ(CC(=O)OCC(=O)Nc3sc4c(c3C#N)CCC(C)C4)c2cc1C (centres unmarked),4.17
9,O=C(CCC(=O)OCC(=O)c1ccc(F)cc1)NC1CCCCC1,3.68
10,Cc1ccc(CCNS(=O)(=O)c2cc3c(cc2Cl)NC(=O)CO3)cc1,6.34
11,Cc1cc(C)c(C#N)c(SCC(=O)C2CC2)n1,17.3
12,O=c1cc(O)c2sc3nc(-c4ccccc4)cc(C(F)(F)F)c3c2[nH]1,5.74
13,Cc1ccc(N=C2SC(C(=O)NCCc3ccccc3)CC(=O)N2C)cc1C (centres unmarked),-9.82
14,O=C(Nc1ccc2[nH]ccc2c1)c1cccs1,13.4
15,Cc1cccc(NC(=O)CSc2nnc(NC(=O)CN3CCOCC3)s2)c1,8.91
16,COCCOC(=O)c1c(NC(=O)COC(=O)c2ccc(C)o2)sc(C(N)=O)c1C,5.24
17,COC(=O)c1cc(S(=O)(=O)NCCc2cccc(C)c2)cn1C,12.3
18,CCCN(CC(=O)Nc1ccccc1C)C(=O)c1ccc(N2CCCCCC2)c([N+](=O)[O-])c1,11.4
19,Fc1cccc(/C=C2\CCCC3=C2NC(=S)NC3c2cccc(F)c2)c1 (centres unmarked),15.1
20,O=C(Nc1nnc(CCc2ccccc2)s1)c1cccc(F)c1,13.1
21,O=C(Nc1ccc(F)cc1)Nc1ccc(N2CCCC2)c(S(=O)(=O)Nc2ccccc2Cl)c1,16.7
22,Cc1ccc(NC(=S)Nc2ccc3nc(-c4ccccn4)c(-c4ccccn4)nc3c2)cc1C,2.11
23,COC(=O)c1ccccc1NC(=O)c1ccc[nH+]c1.[Cl-],10.9

row,Structure (SMILES),"hERG current change (%, negative = inhibition) at 1uM [%]"
1,Cc1csc(=O)n1CC(=O)OCC(=O)Nc1ccc(C(N)=O)cc1,2.5
2,COC(=O)c1c(-c2cccc(OC)c2)csc1N,10.3
3,CC(C)(O)C#Cc1ncc(C(F)(F)F)cc1Cl,8.86
4,Cc1ccc2cc(CN(C)C(=O)C3CCCO3)c(=O)[nH]c2c1 (centres unmarked),9.68
5,COc1ccccc1-n1c(-c2ccccc2F)nc2ccccc2c1=O,12.8
6,O=C(CSCc1ccccc1)Nc1ccc(S(=O)(=O)N2CCOCC2)cc1,0.294
7,CCc1cccc(NC(=O)CCNS(=O)(=O)c2cccc3nonc23)c1,15.7
8,CCCCC(=O)Nc1cc(Cl)ccc1C(=O)O,24
9,Cn1nnnc1SCC(=O)NC(=O)c1cccc([N+](=O)[O-])c1,11.9
10,COc1ccc(-c2coc3cc(O)ccc3c2=O)cc1OC,9.75
11,COc1ccc(C2C3CCCCC3(O)CCN2C(=O)c2cccs2)cc1 (centres unmarked),15.9
12,NC(=O)Cn1c(=O)n(CCC(=O)Nc2ccc(F)cc2)c(=O)c2sccc21,14.8
13,Cc1ccc(CNC(=O)c2cnc3ccccc3n2)cc1,10.9
14,O=S(=O)(c1cnc(Cl)c(Br)c1)N1CCc2ccccc21,8.18
15,COc1ccc(N2CCN(C(=O)COC(=O)COc3ccc(C#N)cc3)CC2)cc1,6.82
16,COc1ccccc1CNC(=O)c1ccc(CS(=O)(=O)c2ccccc2)o1,1.42
17,COc1ccc(NC(=O)CCN2C(=O)c3ccc([N+](=O)[O-])cc3C2=O)c(OC)c1,8.77
18,CCCC(=O)Nc1nc(-c2ccc3c(c2)CCN3S(C)(=O)=O)cs1,11.3
19,CC(=O)c1c(C)nc2ccc(Cl)cn12,-0.0859
20,O=C(N/C(=C\c1ccccc1)C(=O)N1CCOCC1)c1ccccc1Cl,7.43
